# In PubChem BioAssay AID1030 (National Center for Advancing Translational Sciences (NCATS), 2008):
# Among all 220,000 compounds or so, about 16,000 (7.3%) were called active. Inconclusive results, whose numbers are uncertain, are shown with a selection of clear calls. Calls follow the shape of the dose curve; as a rule, active = well fitted inhibition curve with a large enough effect (not every such curve was filed as active); inconclusive = small, poorly fitted or top-dose-only effect, or another doubt; inactive = no such curve, though single readings can be large or run the other way. Potencies of inconclusive entries are left out as doubtful fits.
# Molecular target: Aldehyde dehydrogenase 1A1 (Homo sapiens) (UniProt P00352)
# Assay: qHTS Assay for Inhibitors of Aldehyde Dehydrogenase 1 (ALDH1A1);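 as to activity, negative = inhibition: plate controls were no enzyme wells and a reference inhibitor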
# Conditions: Purified ALDH1A1, NADH fluorescence, propionaldehyde substrate; series mostly up to 75.3 µM; activity, negative = inhibition: at the top concentration
# Potency is read from the fitted curve at half-maximal effect; tags tell the direction and shape of the fitted curve.
# Sequence of UniProt P00352 (P00352 whole entry, looked up): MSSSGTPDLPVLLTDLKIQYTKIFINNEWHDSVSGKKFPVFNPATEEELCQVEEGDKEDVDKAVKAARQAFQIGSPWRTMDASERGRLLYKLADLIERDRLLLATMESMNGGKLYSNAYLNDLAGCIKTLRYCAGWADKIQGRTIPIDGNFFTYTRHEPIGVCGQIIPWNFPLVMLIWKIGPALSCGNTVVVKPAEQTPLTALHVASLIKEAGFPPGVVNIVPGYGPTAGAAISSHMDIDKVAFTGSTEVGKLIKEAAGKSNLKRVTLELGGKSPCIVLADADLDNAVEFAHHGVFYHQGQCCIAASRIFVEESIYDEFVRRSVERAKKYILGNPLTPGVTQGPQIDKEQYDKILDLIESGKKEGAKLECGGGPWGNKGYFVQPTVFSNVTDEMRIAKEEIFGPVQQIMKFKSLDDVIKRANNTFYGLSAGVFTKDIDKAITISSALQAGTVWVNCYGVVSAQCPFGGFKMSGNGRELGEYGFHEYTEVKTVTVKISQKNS
SMILES,Potency,"activity, negative = inhibition"
CCOc1cc(S(=O)(=O)NCCc2ccccc2C)c(OCC)cc1-n1cnnn1,"inconclusive [inhibitor, single point]",–
CCc1ccccc1NC(=S)N(CCN(C)C)Cc1cccs1,–,inactive: -2.87%
COc1ccccc1NCC(=O)N/N=C(\C)c1ccc(Br)s1,–,inactive: -14.3%
COc1ccc(-c2cc(OC(=O)c3ccc(F)cc3)c3c(C)oc(C)c3c(=O)c2)cc1,–,inactive: -6.98%
CC(C)N1CCc2c(sc(NC(=S)NC(=O)c3ccccc3)c2C#N)C1,active: 12.6 µM,–
CCN(Cc1ccccc1)C1CCN(Cc2ccc(SC)cc2)CC1,"inconclusive [inhibitor, single point]",–
CCOc1cc(N2CCOCC2)c(OCC)cc1NC(=O)CCS(=O)(=O)c1ccc(Cl)cc1,–,inactive: -1.24%
C=CCn1cnc2c(c1=O)c1nc3ccccc3nc1n2/N=C/c1cccc(OC)c1,active: 11.2 µM,–
COCCSc1ccccc1C(=O)Nc1ccccc1C#N,–,inactive: 0.834%
O=C(NC1CCCC1)C(c1cccs1)N(CC1CCCO1)C(=O)Cc1cccs1 (centres undefined),–,inactive: -2.03%
Cc1ccc(CSCC(=O)Nc2ccc3c(c2)OCO3)cc1,active: 7.94 µM,–
O=C1[C@H]2C(c3ccccc3)=NN(c3ccccc3)[C@H]2C(=O)N1c1ccccc1,"inconclusive [inhibitor, partial curve]",–
COc1ccccc1NC(=S)NNC(=O)c1cc(C)n(C)n1,–,inactive: -5.79%
Clc1ccccc1Nc1nc(-c2cccnc2)cs1,"inconclusive [inhibitor, single point]",–
O=C(NCc1ccc(Cl)cc1)c1cc2c(nc3sccn32)s1,"inconclusive [inhibitor, single point]",–
N=c1c2c(-c3ccccc3)c(-c3ccccc3)n(Cc3ccco3)c2ncn1CCCN1CCOCC1,–,inactive: 7.84%
Fc1ccc(-c2ccc(-c3nn4c(-c5ccco5)nnc4s3)o2)cc1,"inconclusive [inhibitor, single point]",–
CCC(=O)Nc1ccc(OCc2nc3ccccc3s2)cc1,"inconclusive [inhibitor, single point]",–
O=C(Nc1ccc2nsnc2c1)NC1CCCCC1,"inconclusive [inhibitor, single point]",–
CCC/C(=N/NC(=O)c1cccc(Cl)c1)c1ccccc1,"inconclusive [inhibitor, partial curve, poor fit]",–
CSc1ccccc1-c1nnc(-c2ccccc2)o1,"inconclusive [inhibitor, partial curve]",–
CN(C)c1ncnc2ccc(-c3ccoc3)cc12,active: 28.2 µM,–
Clc1ccc2[nH]c(-c3ccccc3)cc2c1,"inconclusive [inhibitor, single point]",–
Cn1c2c(c(=O)n(C)c1=O)C(c1ccccc1F)C(C#N)=C(N)O2 (centres undefined),"inconclusive [inhibitor, single point]",–
CC1=C(C(N)=O)C(c2sccc2C)n2nnnc2N1 (centres undefined),active: 20 µM,–

SMILES,Potency,"activity, negative = inhibition"
Cc1ccc(C(=O)c2ccc(C)cc2)cc1,"inconclusive [inhibitor, partial curve]",–
CC(C)(C)c1ccc(S(=O)(=O)N2CC(=O)Nc3ccccc32)cc1,"inconclusive [inhibitor, partial curve]",–
O=C(NN=C1C2CC3CC(C2)CC1C3)c1cccs1,active: 20 µM,–
O=C(Cn1cnc2ccccc2c1=O)NCC(=O)N1CCN(c2ccccn2)CC1,"inconclusive [inhibitor, single point]",–
CCOc1ccc(N2C(=O)CSC23CCCCC3)cc1,"inconclusive [inhibitor, single point]",–
CC(C)n1cc(/C=C(\C#N)S(=O)(=O)c2ccccc2)c2ccccc21,"inconclusive [inhibitor, partial curve]",–
CO[C@@H]1COC(=O)C/C=C\[C@@H](C)[C@H](OC)COC(=O)[C@H](COCc2ccccc2)NC(=O)C/C=C\[C@H]1C,–,inactive: -14.9% [at 13.5 µM]
COC(=O)N1CCC2(CCCN(c3ccc(-c4ccccc4)cc3)C2)CC1,"inconclusive [inhibitor, single point]",–
COc1ccc(N(C(=O)c2ccccc2OC(C)=O)C(C)C2CC2)cc1 (centres undefined),–,inactive: -1.23%
COc1ccccc1CNN,"inconclusive [inhibitor, single point]",–
CCC(=O)NC(=S)Nc1cccc(Cl)c1N1CCCC1,"inconclusive [inhibitor, single point]",–
CC(=O)N/N=C/c1cc(C(C)C)cc(/C=N/NC(C)=O)c1O,–,inactive: 3.08%
O=C(Nc1ccc2nn(-c3ccccc3)nc2c1)c1ccc2c(c1)OCCO2,"inconclusive [inhibitor, partial curve]",–
Cc1cc(C)n2nc(SCN3C(=O)c4ccccc4C3=O)nc2n1,"inconclusive [inhibitor, single point]",–
Cc1cc(OCc2cn3cccnc3n2)ccc1Cl,–,inactive: -2.55%
C[C@]12CCC(=O)C=C1CC[C@@H]1[C@@H]2C(=O)C[C@@]2(C)[C@H]1CC[C@]2(O)C(=O)CO,"inconclusive [inhibitor, single point]",–
Fc1ccccc1SCc1nnc(-c2ccccc2Br)o1,"inconclusive [inhibitor, single point]",–
COc1ccc(C/C(C)=N/NC(=O)c2ccc(Cl)cc2)cc1,active: 7.08 µM,–
CCn1cc(C(=O)NCc2ccco2)c(=O)c2cc(S(=O)(=O)N3CCCC3)ccc21,active: 25.1 µM,–
COc1cccc(CNC(=O)c2ccc(NC(=O)C3CCCO3)cc2)c1 (centres undefined),"inconclusive [inhibitor, single point]",–
CCn1c(SCc2cccnc2)nnc1-c1c[nH]c2ccccc12,–,inactive: 5.21%
C=CCNC(=S)NNC(=O)c1cccn(Cc2ccc(Cl)cc2)c1=O,"inconclusive [inhibitor, single point]",–
CCOC(=O)C(NC(=O)c1ccccc1OCC)(Nc1ncccn1)C(F)(F)F (centres undefined),–,inactive: 0.046%
COc1ccc(Oc2nccc(-c3ccccc3)c2C#N)cc1,"inconclusive [inhibitor, single point]",–
